Results as given in paper PMC4336329 (PLoS ONE, 2015).
Among all 310,000 compounds or so, about 2,200 (0.71%) showed an effect of 50% or more. The effect is printed as a negative number. This is one part of the list.

biological target: human ether-à-go-go-related gene (hERG) potassium channel (human, UniProt Q12809); test: primary screen, population patch clamp on CHO cells stably expressing hERG
Sequence (Q12809 whole entry, looked up): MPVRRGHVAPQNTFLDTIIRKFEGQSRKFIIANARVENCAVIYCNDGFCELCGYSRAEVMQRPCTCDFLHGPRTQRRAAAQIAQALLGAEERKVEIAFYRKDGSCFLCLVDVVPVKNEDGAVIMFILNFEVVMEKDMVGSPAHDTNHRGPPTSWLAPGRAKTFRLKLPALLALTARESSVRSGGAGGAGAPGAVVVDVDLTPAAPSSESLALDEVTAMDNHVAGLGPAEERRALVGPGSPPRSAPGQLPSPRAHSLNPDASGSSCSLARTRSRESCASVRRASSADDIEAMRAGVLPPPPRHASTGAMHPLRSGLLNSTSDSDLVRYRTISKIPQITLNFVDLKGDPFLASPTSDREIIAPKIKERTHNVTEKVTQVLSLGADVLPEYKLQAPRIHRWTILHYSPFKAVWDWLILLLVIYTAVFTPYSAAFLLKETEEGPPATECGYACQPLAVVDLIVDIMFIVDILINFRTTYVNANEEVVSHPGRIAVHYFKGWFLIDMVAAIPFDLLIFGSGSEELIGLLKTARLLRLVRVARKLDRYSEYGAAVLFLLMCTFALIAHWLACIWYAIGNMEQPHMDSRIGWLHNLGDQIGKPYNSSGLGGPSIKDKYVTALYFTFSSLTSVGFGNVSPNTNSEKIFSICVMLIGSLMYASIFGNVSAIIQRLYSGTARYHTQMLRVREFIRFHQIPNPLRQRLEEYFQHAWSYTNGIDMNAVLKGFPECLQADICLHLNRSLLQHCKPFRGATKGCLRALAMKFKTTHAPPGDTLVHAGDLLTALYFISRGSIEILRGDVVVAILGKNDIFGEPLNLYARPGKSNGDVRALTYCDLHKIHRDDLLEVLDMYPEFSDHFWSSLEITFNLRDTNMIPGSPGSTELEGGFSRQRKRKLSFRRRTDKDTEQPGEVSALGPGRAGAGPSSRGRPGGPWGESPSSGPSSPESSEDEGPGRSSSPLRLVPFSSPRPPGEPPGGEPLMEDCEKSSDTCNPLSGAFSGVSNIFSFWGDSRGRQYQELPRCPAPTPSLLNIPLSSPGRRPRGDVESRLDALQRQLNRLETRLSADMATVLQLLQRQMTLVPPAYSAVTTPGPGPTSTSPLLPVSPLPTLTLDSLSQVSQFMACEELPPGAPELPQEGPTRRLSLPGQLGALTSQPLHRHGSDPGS

| SMILES | hERG current change (%, negative = inhibition) at 1uM [%] |
| --- | --- |
| CCS(=O)(=O)c1ccc2oc(Nc3ccccc3Cl)nc2c1 | 9.22 |
| COc1ccc(CCNC(=O)c2cc([N+](=O)[O-])ccc2N2CCOCC2)cc1 | 1.7 |
| O=C1CC[C@@H](CN(Cc2ccccn2)Cc2nc(Cc3cccc(C(F)(F)F)c3)no2)N1 | -21.5 |
| COc1ccc(CC(NC(C)=O)C(=O)NC2CCN(C(=O)Nc3ccc(C#N)cc3)CC2)cc1OC (stereo not shown) | 1.74 |
| N#Cc1ccc(-c2ccccc2)nc1Sc1ccc(F)cc1 | 9.74 |
| Br.OCCn1c(-c2ccc(F)cc2)csc1=Nc1ccccc1 | 8.62 |
| CN1CC2CCCC3(C1)C(=O)NC1(CCCCC1)N=C23 (stereo not shown) | 5.99 |
| CCOC(=O)C1(Cc2cccc(OC)c2)CCCN(C(=O)c2cc(C)oc2C)C1 (stereo not shown) | 4.99 |
| Cc1ccccc1OCC(=O)Nc1nc(C)c(C(=O)N(C)C)s1 | 11.6 |
| COc1cccc(CSc2nc3nc(C)cc(C)n3n2)c1 | 10.4 |
| COc1ccccc1N(CC(=O)NC1CCCCC1)S(=O)(=O)c1cccs1 | 2.78 |
| Nc1ccc(C#Cc2ccc3oc4ccccc4c(=O)c3c2)cc1 | 12.1 |
| O=C(N[C@@H](Cc1ccccc1)C(=O)OCc1ccccc1)c1nc[nH]c1C(=O)NC1CC[NH2+]CC1.[Cl-] | 11.6 |
| O=C(CC1SC(N2CCCCC2)=NC1=O)Nc1cccc(C(=O)Nc2ncccc2O)c1 (stereo not shown) | 9.67 |
| COc1ccccc1-c1c(C)nn2c(N3CCC(C)CC3)cc(C)nc12 | 10.7 |
| CCOC(=O)c1cnc2c(OC)cccc2c1N1CCN(c2ccc(OC)cc2)CC1 | 7.99 |
| COc1ccc(C2NC(=O)NC3=C2CCc2ccccc23)cc1 (stereo not shown) | 12.9 |
| Cc1nn(C)cc1C(C(=O)NC1CCCCC1)N(Cc1ccc(F)cc1)C(=O)c1cnccn1 (stereo not shown) | 12.4 |
| COc1ccc(S(=O)(=O)N2CCC(C(=O)NCc3ccncc3)CC2)cc1C | 9.02 |
| COc1ccc(C)cc1S(=O)(=O)N(C)CC(=O)NCc1ccncc1 | 14.1 |
| COc1cc(C2C3=C(CC(C)(C)CC3=O)Nc3ccccc3N2C(C)=O)cc(OC)c1OC (stereo not shown) | 12.4 |
| Cc1nc(CN2CCN(C(=O)c3ccc(Br)cc3)CC2)cs1 | 9.67 |
| O=C(Cn1sc2ccccc2c1=O)N1CCN(C(=O)c2ccco2)CC1 | 6.74 |
| O=C1CSC(c2cn(-c3ccccc3)nc2-c2cccs2)N1Cc1ccccc1 (stereo not shown) | 11.3 |
| COC(=O)c1[nH]c2cc(C)ccc2c1NC(=O)CN1CCc2cc(OC)c(OC)cc2C1 | 9.75 |
| O=C(COc1ccc(Br)cc1)N1CCN(S(=O)(=O)/C=C/c2ccccc2)CC1 | 2.95 |
| CN(Cc1ccccc1)/C(=N/O)c1cccc(Cl)c1 | 13.2 |
| C=CCc1cc(Cl)ccc1OCCOCCN(C)C.O=C(O)C(=O)O | 6.3 |

| SMILES | hERG current change (%, negative = inhibition) at 1uM [%] |
| --- | --- |
| CCN(C(=O)COC(=O)c1cn(C)c2ccccc12)c1ccc(F)cc1 | 9.43 |
| C/C(Cl)=C/Cc1c(C)[nH]c2c(ccc3ccccc32)c1=O | 21.2 |
| Cn1nc(C(=O)Nc2ccccc2N2CCCC2)c2ccccc2c1=O | 2.57 |
| CCOc1cc(/C=C2\COc3ccccc3C2=O)ccc1OCC(=O)N(C)C | 20.9 |
| O=C1N/C(=C/c2ccc(Br)cc2)C(O)=C1C=NCc1ccccc1 | 3.82 |
| S=c1[nH]nc(-c2cccnc2)n1/N=C/C=C/c1ccco1 | 5.23 |
| C=CCN1C(=O)C(CC(=O)O)SC1=Nc1c(C)n(C)n(-c2ccccc2)c1=O (stereo not shown) | 2.51 |
| CCOc1ccc(NS(=O)(=O)c2ccc(C(=O)NCC(c3ccco3)N(C)C)cc2)cc1 (stereo not shown) | 4.56 |
| O=C(O)c1cc(S(=O)(=O)N2CC3CC3C2C(=O)O)c(Cl)cc1Cl (stereo not shown) | 13.9 |
| O=C(CCC(=O)c1cccs1)Nc1ccccc1F | 5.69 |
| Cc1nc2ccc(NC(=O)N3CCCCC3)cc2nc1C | 15.3 |
| COc1cccc(CNS(=O)(=O)c2ccc(S(=O)(=O)NC3CC3)cc2)c1 | 11.1 |
| Oc1cc(Br)ccc1C=Nc1ccc(N2CCCCC2)cc1 | 9.03 |
| O=C(OCC(=O)N1CCN(S(=O)(=O)c2ccc(Cl)cc2)CC1)C1CC1 | 1.98 |
| Oc1ccccc1/C=N/N1CCN(c2ccccn2)CC1 | 9.06 |
| CCOc1cc(C(c2c(C)[nH][nH]c2=O)c2c(C)[nH][nH]c2=O)cc(Br)c1OC | 16.3 |
| O=C(NC1CC2CCCC(C1)N2Cc1ccccc1)c1ccc([N+](=O)[O-])cc1 (stereo not shown) | -82.2 |
| CN1C(C(=O)NCc2cccs2)=CC(c2ccc(F)cc2)=NS1(=O)=O | 4 |
| Cc1cccc2c1OCC/C2=N\NC(=O)COc1ccccc1 | 11.2 |
| CCOc1ccc(S(=O)(=O)N(CC)CC)cc1N | 1.64 |
| Cc1nc([N+](=O)[O-])c(C(=O)OCc2cccc(Br)c2)n1C | -0.133 |
| CC(=O)Nc1ccc(S(=O)(=O)N(C)CC(=O)OCC(=O)NCc2ccco2)cc1 | 3.99 |
| CCc1cccc(C)c1NC(=O)COC(=O)CC1CCCC1 | 4.9 |
| COc1cccc(OC)c1C(=O)Nc1ccccc1C(=O)N1CCOCC1 | 7.58 |
| O=C(Nc1ccncc1)c1ccc(NS(=O)(=O)c2cccc(F)c2)cc1 | 3.76 |
| O=C(Nc1ccc(N2CCCC2=O)cc1)c1cccc(F)c1 | -5.54 |
| COc1ccc(-n2c(SCC(=O)Nc3ccc(C)cc3)nc(O)c(Cc3ccccc3)c2=O)cc1 | 13.6 |
